This note sets out measurements from the supplement of paper PMC12423691.

Some of the results follow. Binding of human transcription factors and regulators to the viral nucleoprotein by AlphaScreen, crude cell-free proteins, amounts not normalised, one pass. Fold of the Venus control; higher = more signal. No active / inactive call. Single-pass screen; sequences are the whole Swiss-Prot entries looked up by name.

B1: TRIM31, Q9BZY9 (protein)
chain: MASGQFVNKLQEEVICPICLDILQKPVTIDCGHNFCLKCITQIGETSCGFFKCPLCKTSVRKNAIRFNSLLRNLVEKIQALQASEVQSKRKEATCPRHQEMFHYFCEDDGKFLCFVCRESKDHKSHNVSLIEEAAQNYQGQIQEQIQVLQQKEKETVQVKAQGVHRVDVFTDQVEHEKQRILTEFELLHQVLEEEKNFLLSRIYWLGHEGTEAGKHYVASTEPQLNDLKKLVDSLKTKQNMPPRQLLEDIKVVLCRSEEFQFLNPTPVPLELEKKLSEAKSRHDSITGSLKKFKDQLQADRKKDENRFFKSMNKNDMKSWGLLQKNNHKMNKTSEPGSSSAGGRTTSGPPNHHSSAPSHSLFRASSAGKVTFPVCLLASYDEISGQGASSQDTKTFDVALSEELHAALSEWLTAIRAWFCEVPSS
B2: SCAND1, P57086 (protein)
chain: MAATEPILAATGSPAAVPPEKLEGAGSSSAPERNCVGSSLPEASPPAPEPSSPNAAVPEAIPTPRAAASAALELPLGPAPVSVAPQAEAEARSTPGPAGSRLGPETFRQRFRQFRYQDAAGPREAFRQLRELSRQWLRPDIRTKEQIVEMLVQEQLLAILPEAARARRIRRRTDVRITG
B3: NFE2, Q16621 (protein)
chain: MSPCPPQQSRNRVIQLSTSELGEMELTWQEIMSITELQGLNAPSEPSFEPQAPAPYLGPPPPTTYCPCSIHPDSGFPLPPPPYELPASTSHVPDPPYSYGNMAIPVSKPLSLSGLLSEPLQDPLALLDIGLPAGPPKPQEDPESDSGLSLNYSDAESLELEGTEAGRRRSEYVEMYPVEYPYSLMPNSLAHSNYTLPAAETPLALEPSSGPVRAKPTARGEAGSRDERRALAMKIPFPTDKIVNLPVDDFNELLARYPLTESQLALVRDIRRRGKNKVAAQNCRKRKLETIVQLERELERLTNERERLLRARGEADRTLEVMRQQLTELYRDIFQHLRDESGNSYSPEEYALQQAADGTIFLVPRGTKMEATD
B4: ESX1, Q8N693 (protein)
chain: MESLRGYTHSDIGYRSLAVGEDIEEVNDEKLTVTSLMARGGEDEENTRSKPEYGTEAENNVGTEGSVPSDDQDREGGGGHEPEQQQEEPPLTKPEQQQEEPPLLELKQEQEEPPQTTVEGPQPAEGPQTAEGPQPPERKRRRRTAFTQFQLQELENFFDESQYPDVVARERLAARLNLTEDRVQVWFQNRRAKWKRNQRVLMLRNTATADLAHPLDMFLGGAYYAAPALDPALCVHLVPQLPRPPVLPVPPMPPRPPMVPMPPRPPIAPMPPMAPVPPGSRMAPVPPGPRMAPVPPWPPMAPVPPWPPMAPVPTGPPMAPVPPGPPMARVPPGPPMARVPPGPPMAPLPPGPPMAPLPPGPPMAPLPPGPPMAPLPPRSHVPHTGLAPVHITWAPVINSYYACPFF
B5: ZSCAN1, Q8NBB4 (protein)
chain: MLPRPKAPASPRRPQTPTPSEQDADPGPASPRDTEAQRLRFRQFQYHVASGPHLALGQLWTLCRQWLRPEARSKEQMLELLVLEQFLGALPSKMRTWVQSQGPRSCREAASLVEDLTQMCQQEVLVSLDSVEPQDWSFGEEEDGKSPRSQKEPSQASELILDAVAAAPALPEESEWLETTQLQQSLHTRAEAEAPRAPGLLGSRARLPLKPSIWDEPEDLLAGPSSDLRAEGTVISSPKGPSAQRISPRRRNRNTDQSGRHQPSLKHTKGGTQEAVAGISVVPRGPRGGRPFQCADCGMVFTWVTHFIEHQKTHREEGPFPCPECGKVFLHNSVLTEHGKIHLLEPPRKKAPRSKGPRESVPPRDGAQGPVAPRSPKRPFQCSVCGKAFPWMVHLIDHQKLHTAHGHM
B6: ZFPM2, Q8WW38 (protein)
chain: MSRRKQSKPRQIKRPLEDAIEDEEEECPSEETDIISKGDFPLEESFSTEFGPENLSCEEVEYFCNKGDDEGIQETAESDGDTQSEKPGQPGVETDDWDGPGELEVFQKDGERKIQSRQQLPVGTTWGPFPGKMDLNNNSLKTKAQVPMVLTAGPKWLLDVTWQGVEDNKNNCIVYSKGGQLWCTTTKAISEGEELIAFVVDFDSRLQAASQMTLTEGMYPARLLDSIQLLPQQAAMASILPTAIVNKDIFPCKSCGIWYRSERNLQAHLMYYCSGRQREAAPVSEENEDSAHQISSLCPFPQCTKSFSNARALEMHLNSHSGVKMEEFLPPGASLKCTVCSYTADSVINFHQHLFSHLTQAAFRCNHCHFGFQTQRELLQHQELHVPSGKLPRESDMEHSPSATEDSLQPATDLLTRSELPQSQKAMQTKDASSDTELDKCEKKTQLFLTNQRPEIQPTTNKQSFSYTKIKSEPSSPRLASSPVQPNIGPSFPVGPFLSQFSFPQDITMVPQASEILAKMSELVHRRLRHGSSSYPPVIYSPLMPKGATCFECNITFNNLDNYLVHKKHYCSSRWQQMAKSPEFPSVSEKMPEALSPNTGQTSINLLNPAAHSADPENPLLQTSCINSSTVLDLIGPNGKGHDKDFSTQTKKLSTSSNNDDKINGKPVDVKNPSVPLVDGESDPNKTTCEACNITFSRHETYMVHKQYYCATRHDPPLKRSASNKVPAMQRTMRTRKRRKMYEMCLPEQEQRPPLVQQRFLDVANLNNPCTSTQEPTEGLGECYHPRCDIFPGIVSKHLETSLTINKCVPVSKCDTTHSSVSCLEMDVPIDLSKKCLSQSERTTTSPKRLLDYHECTVCKISFNKVENYLAHKQNFCPVTAHQRNDLGQLDGKVFPNPESERNSPDVSYERSIIKCEKNGNLKQPSPNGNLFSSHLATLQGLKVFSEAAQLIATKEENRHLFLPQCLYPGAIKKAKGADQLSPYYGIKPSDYISGSLVIHNTDIEQSRNAENESPKGQASSNGCAALKKDSLPLLPKNRGMVIVNGGLKQDERPAANPQQENISQNPQHEDDHKSPSWISENPLAANENVSPGIPSAEEQLSSIAKGVNGSSQAPTSGKYCRLCDIQFNNLSNFITHKKFYCSSHAAEHVK
B7: ZSCAN18, Q8TBC5 (protein)
chain: MLPLEKAFASPRSSPAPPDLPTPGSAAGVQQEEPETIPERTPADLEFSRLRFREFVYQEAAGPHQTLARLHELCRQWLMPEARSKEQMLELLVLEQFLGILPDKVRPWVVAQYPESCKKAASLVEGLADVLEEPGMLLGSPAGSSSILSDGVYERHMDPLLLPGELASPSQALGAGEIPAPSETPWLSPDPLFLEQRRVREAKTEEDGPANTEQKLKSFPEDPQHLGEWGHLDPAEENLKSYRKLLLWGYQLSQPDAASRLDTEELRLVERDPQGSSLPEGGRRQESAGCACEEAAPAGVLPELPTEAPPGDALADPPSGTTEEEEEQPGKAPDPQDPQDAESDSATGSQRQSVIQQPAPDRGTAKLGTKRPHPEDGDGQSLEGVSSSGDSAGLEAGQGPGADEPGLSRGKPYACGECGEAFAWLSHLMEHHSSHGGRKRYACQGCWKTFHFSLALAEHQKTHEKEKSYALGGARGPQPSTREAQAGARAGGPPESVEGEAPPAPPEAQR
B8: ETS1, P14921 (protein)
chain: MKAAVDLKPTLTIIKTEKVDLELFPSPDMECADVPLLTPSSKEMMSQALKATFSGFTKEQQRLGIPKDPRQWTETHVRDWVMWAVNEFSLKGVDFQKFCMNGAALCALGKDCFLELAPDFVGDILWEHLEILQKEDVKPYQVNGVNPAYPESRYTSDYFISYGIEHAQCVPPSEFSEPSFITESYQTLHPISSEELLSLKYENDYPSVILRDPLQTDTLQNDYFAIKQEVVTPDNMCMGRTSRGKLGGQDSFESIESYDSCDRLTQSWSSQSSFNSLQRVPSYDSFDSEDYPAALPNHKPKGTFKDYVRDRADLNKDKPVIPAAALAGYTGSGPIQLWQFLLELLTDKSCQSFISWTGDGWEFKLSDPDEVARRWGKRKNKPKMNYEKLSRGLRYYYDKNIIHKTAGKRYVYRFVCDLQSLLGYTPEELHAMLDVKPDADE
B9: TAF4B, Q92750 (protein)
chain: MPAGLTEPAGAAPPAAVSASGTVTMAPAGALPVRVESTPVALGAVTKAPVSVCVEPTASQPLRSPVGTLVTKVAPVSAPPKVSSGPRLPAPQIVAVKAPNTTTIQFPANLQLPPGTVLIKSNSGPLMLVSPQQTVTRAETTSNITSRPAVPANPQTVKICTVPNSSSQLIKKVAVTPVKKLAQIGTTVVTTVPKPSSVQSVAVPTSVVTVTPGKPLNTVTTLKPSSLGASSTPSNEPNLKAENSAAVQINLSPTMLENVKKCKNFLAMLIKLACSGSQSPEMGQNVKKLVEQLLDAKIEAEEFTRKLYVELKSSPQPHLVPFLKKSVVALRQLLPNSQSFIQQCVQQTSSDMVIATCTTTVTTSPVVTTTVSSSQSEKSIIVSGATAPRTVSVQTLNPLAGPVGAKAGVVTLHSVGPTAATGGTTAGTGLLQTSKPLVTSVANTVTTVSLQPEKPVVSGTAVTLSLPAVTFGETSGAAICLPSVKPVVSSAGTTSDKPVIGTPVQIKLAQPGPVLSQPAGIPQAVQVKQLVVQQPSGGNEKQVTTISHSSTLTIQKCGQKTMPVNTIIPTSQFPPASILKQITLPGNKILSLQASPTQKNRIKENVTSCFRDEDDINDVTSMAGVNLNEENACILATNSELVGTLIQSCKDEPFLFIGALQKRILDIGKKHDITELNSDAVNLISQATQERLRGLLEKLTAIAQHRMTTYKASENYILCSDTRSQLKFLEKLDQLEKQRKDLEEREMLLKAAKSRSNKEDPEQLRLKQKAKELQQLELAQIQHRDANLTALAAIGPRKKRPLESGIEGLKDNLLASGTSSLTATKQLHRPRITRICLRDLIFCMEQEREMKYSRALYLALLK

The target of this assay is nucleoprotein N of Crimean-Congo hemorrhagic fever virus. In words: AlphaScreen luminescence signal relative to Venus negative control (fold); higher = stronger binding to CCHFV N. Here is the method: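 AlphaScreen binding of cell-free made, FLAG-GST-tagged human transcription factors and regulators (crude translation products) to biotinylated N protein; signal as fold of the FLAG-GST-Venus control. One pass.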
(Alpha assays give light when donor and acceptor beads are brought close together.)
For the molecule B1, the AlphaScreen luminescence signal was found to be 1.4.

Consider B2, for which the AlphaScreen luminescence signal was 13.9.

In turn, B3 yielded an AlphaScreen luminescence signal of 1.12.

For the molecule B4, the AlphaScreen luminescence signal is 2.19.

B5 had an AlphaScreen luminescence signal of 1.63.

Molecule B6 returned an AlphaScreen luminescence signal of 2.19.

For the molecule B7, the AlphaScreen luminescence signal was determined as 1.53.

Molecule B8 returned an AlphaScreen luminescence signal of 1.16.

As to B9, the AlphaScreen luminescence signal was 2.33.
